Experimental data as given in paper PMC4336329 (PLoS ONE, 2015).
In all, about 310,000 compounds went through this assay and about 2,200 (0.71%) showed an effect of 50% or more. The effect is printed as a negative number. The list shows a part of the results.

Biological target: human ether-à-go-go-related gene (hERG) potassium channel (human, UniProt Q12809)
Assay: primary screen, population patch clamp on CHO cells stably expressing hERG

Sequence of human ether-à-go-go-related gene (hERG) potassium channel (Q12809 whole entry, looked up): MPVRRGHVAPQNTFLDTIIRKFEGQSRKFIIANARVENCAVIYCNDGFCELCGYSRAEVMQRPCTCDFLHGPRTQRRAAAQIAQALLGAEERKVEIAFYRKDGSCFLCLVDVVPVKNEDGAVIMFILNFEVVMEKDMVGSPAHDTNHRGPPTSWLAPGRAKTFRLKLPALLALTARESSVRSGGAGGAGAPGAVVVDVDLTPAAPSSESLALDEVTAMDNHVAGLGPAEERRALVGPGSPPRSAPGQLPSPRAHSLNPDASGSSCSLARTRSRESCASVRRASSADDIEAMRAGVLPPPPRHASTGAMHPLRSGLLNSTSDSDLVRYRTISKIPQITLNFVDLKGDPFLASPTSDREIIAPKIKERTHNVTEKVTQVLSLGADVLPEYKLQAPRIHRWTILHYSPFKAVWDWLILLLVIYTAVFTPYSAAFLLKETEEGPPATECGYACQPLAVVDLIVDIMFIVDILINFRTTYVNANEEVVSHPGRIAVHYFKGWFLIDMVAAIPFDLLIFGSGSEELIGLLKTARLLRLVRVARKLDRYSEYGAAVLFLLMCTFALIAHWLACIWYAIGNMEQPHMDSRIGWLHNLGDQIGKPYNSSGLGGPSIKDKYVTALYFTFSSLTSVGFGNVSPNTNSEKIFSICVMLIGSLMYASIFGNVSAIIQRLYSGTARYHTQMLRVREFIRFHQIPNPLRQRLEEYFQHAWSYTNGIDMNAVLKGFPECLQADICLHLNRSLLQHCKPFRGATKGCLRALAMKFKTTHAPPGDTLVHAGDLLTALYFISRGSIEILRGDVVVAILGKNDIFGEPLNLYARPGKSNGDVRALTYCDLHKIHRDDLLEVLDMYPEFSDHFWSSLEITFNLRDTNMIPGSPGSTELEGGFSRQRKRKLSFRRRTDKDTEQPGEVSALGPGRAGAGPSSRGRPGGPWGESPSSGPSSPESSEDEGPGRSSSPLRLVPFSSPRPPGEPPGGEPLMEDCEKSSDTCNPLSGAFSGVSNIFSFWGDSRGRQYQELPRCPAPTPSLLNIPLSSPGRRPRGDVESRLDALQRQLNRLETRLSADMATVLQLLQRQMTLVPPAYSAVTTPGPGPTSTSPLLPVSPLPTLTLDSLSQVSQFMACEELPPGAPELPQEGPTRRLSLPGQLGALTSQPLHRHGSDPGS

Row | SMILES | hERG current change (%, negative = inhibition) at 1uM [%]
1 | CC(C)(CO)NCc1cccc(OCc2ccc(Cl)cc2)c1 | -5.35
2 | COC(=O)Cc1cc(=O)n2[nH]c(C)c(-c3ccccc3)c2n1 | 6.12
3 | CC(/C=C/c1cccc([N+](=O)[O-])c1)=N\NC(=O)c1ccncc1 | -8.67
4 | CCC(=NCCc1c(C)[nH]c2ccc(C)cc12)C1=C(O)CC(c2ccccc2)CC1=O (centres unmarked) | 12.1
5 | COc1cccc(-n2c(CN3CCN(c4ccc(C)cc4)C(C)C3)nc3ccc([N+](=O)[O-])cc3c2=O)c1 (centres unmarked) | 3.38
6 | COc1ccc(CNC(=O)C(=O)NCC2OCCN2S(=O)(=O)c2ccccc2)cc1 (centres unmarked) | 5.84
7 | COc1ccc(OCC(=O)Nc2ccc(N3CCCCC3)cc2)cc1 | 6.16
8 | CCCN1C(=O)/C(=N\OCC(=O)NCC(F)(F)F)c2ccccc21 | 2.02
9 | COc1ccc(C2(C(=O)N3CCOCC3)CCOCC2)cc1OC | 22.3
10 | CCC1Oc2ccccc2N(CC(=O)NCCC2=CCCCC2)C1=O (centres unmarked) | 1.04
11 | COc1ccc2c(c1)cc1c(=O)n(CC(=O)NCCCOC(C)C)nc(C)n12 | 19.5
12 | CN(C)c1cc(N)c2ccccc2n1.O=C(O)c1cc(=O)[nH]c(=O)[nH]1 | -0.834
13 | Cc1cc(C)nc(SCc2cn3cc(Cl)ccc3n2)n1 | 3.34
14 | C=CC[N+](C)(C)CC(=O)OCc1ccccc1.[Br-] | -12.6
15 | Cc1nn(-c2ccccc2)c(C)c1CN | -2.59
16 | CCN(c1ccc(C)cc1C)S(=O)(=O)c1nnc(NC(=O)C(C)C)s1 | 12.5
17 | CSc1ccccc1NC(=S)Nc1cc(C)cc(C)c1 | 11.1
18 | CCOCCCNC(=O)/C=C1\Sc2ccccc2N(Cc2ccccc2F)C1=O | 5.71
19 | CCCCN1CCCCC1C(=O)Nc1c(C)cccc1C.Cl (centres unmarked) | 6.7
20 | CCOC(=O)Cc1csc(NC(=O)CSc2nc3cccnc3n2CC)n1 | 4.39
21 | O=C(NCCN1C(=O)S/C(=C\c2cccs2)C1=O)c1ccco1 | 1.6
22 | CCN(CC)S(=O)(=O)c1cc(NS(=O)(=O)c2cccc(Cl)c2Cl)ccc1C | 16.4

Row | SMILES | hERG current change (%, negative = inhibition) at 1uM [%]
23 | CCCCN(C(=S)Nc1cccc(SC)c1)C1CCN(C(C)=O)CC1 | -5.63
24 | COc1ccc(-n2c(Cc3cccn3C)nnc2SCC(=O)Nc2ccc(Cl)cc2)cc1 | -1.58
25 | Cc1[nH]c2ccccc2c1C(=O)COC(=O)c1c(-c2c(F)cccc2Cl)noc1C | 12.1
26 | COc1ccccc1NC(=O)C(C)OC(=O)CSCC(=O)Nc1ccc(C)cc1C (centres unmarked) | 8.65
27 | Cc1noc(C)c1C(=O)NC1CCCc2ccccc21 (centres unmarked) | -3.02
28 | Cc1c(C(=O)OCCOc2ccc(Br)cc2)sc(=S)n1C | 3.47
29 | COc1nc(-c2ccccc2)cc(C(F)(F)F)n1 | -8.54
30 | CCOc1cc(NC(=O)Nc2ccccc2)c(OCC)cc1NC(=O)CC | 17.4
31 | CCCOc1ccc(-c2c(C(=O)N/N=C/C3CC=CCC3)nnn2-c2nonc2N)cc1 (centres unmarked) | 18.3
32 | Cc1nn(C(=O)CCC(=O)NCc2ccccc2Cl)c2ccccc12 | 14.4
33 | O=C(NN1C(=O)C2C3C=CC([C@@H]2C1=O)C31CC1)c1ccccc1 (some centres unmarked) | 14.2
34 | Cc1cccc(-n2c(CNC(=O)c3ccc(S(=O)(=O)N4CCCC4)cc3)n[nH]c2=S)c1 | 3.32
35 | CCc1ccc(-c2nnn(Cc3nn[nH]n3)n2)cc1 | -6.68
36 | CC(C)Nc1nc(Cl)nc(NC(C)C)n1 | 16.9
37 | CC(=O)C1=C(C)Nc2ncnn2C1c1cccc(O)c1 (centres unmarked) | 20.9
38 | CN1C(=O)SC(Nc2ccc(F)cc2)C1=O (centres unmarked) | 13.3
39 | O=C(NN1C(=O)C2C3C=CC(C3)C2C1=O)c1ccccc1 (centres unmarked) | 13
40 | Cc1ccc(SCC(=O)NCCN2C(=O)CSC2=O)c(C)c1 | 3
41 | Cc1cc(NS(=O)(=O)c2ccc(NC(=O)COc3ccccc3Cl)cc2)no1 | -11.6
42 | N#Cc1nc(-c2ccc(OCc3ccc(Cl)cc3)cc2)oc1N1CCC(C(N)=O)CC1 | 12.6
43 | COc1ccc(OC2CCN(S(=O)(=O)c3ccc(C(C)=O)cc3)CC2)cc1 | 12.3
44 | Cc1ccc(C)c(N(C)S(=O)(=O)c2ccc3[nH]cc(C(=O)NCCN4CCOCC4)c(=O)c3c2)c1 | 4.42
